# In PubChem BioAssay AID1745845 (National Center for Advancing Translational Sciences (NCATS), 2022):
# Screen size: about 360,000 compounds; about 2,600 (0.72%) were called active. The shares of active, inactive and inconclusive entries below differ from those in the screen. Calls come from the whole dose curve; as a rule, active = well fitted inhibition curve with a large enough effect; inconclusive = small, poorly fitted or top-dose-only effect; inactive = no such curve, though single readings can be large or run the other way. Where the call is inconclusive, the potency comes from a doubtful curve fit.
# Assay: Primary qHTS for Inhibitors of ATXN expression; note: nearly all actives have a fitted effect of over 55% in size
# Conditions: HEK-293 ATXN2-luciferase reporter, luminescence, 24 h; activity change, negative = inhibition: at 57 µM (top of the series)
# Method in brief: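 qHTS (up to 57 uM final) was run with 24 h compound exposure of reporter cells at 37 °C. Each well was multiplexed: SteadyGlo luminescence measured ATXN2-luciferase expression after a fluorogenic Gly-Phe-AFC viability readout (25 uM final).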
# % is set by controls: 0 for no effect and ±100 for the full control effect; potency is the fitted concentration of half-maximal effect; tags give direction and shape of the fitted curve.
Compound,"activity change, negative = inhibition",Potency
CCC(CC)C(=O)N(C)c1c(C)nc2c(OCc3cccc(OC)c3)cccn12,inactive: -19.5%,
N#CC(C#N)=C1C=CC=CN1/C(=C\c1ccco1)C(=O)c1ccc(-c2ccccc2)cc1,,"inconclusive: 28.2 µM [inhibitor, single point]"
O=C(O)c1ccc(S(=O)(=O)/N=C2\C=C(Nc3ccccc3F)C(=O)c3ccccc32)cc1,,active: 7.94 µM
COCCNc1nc(NCCOc2ccccc2Cl)c2sccc2n1,,"inconclusive: 28.2 µM [inhibitor, single point]"
CC(C)Cn1cnc2c(Sc3c([N+](=O)[O-])ncn3C)nc(N)nc21,inactive: 2.94%,
COc1ccc(S(=O)(=O)NCCc2csc(-c3ccc(F)cc3)n2)cc1,,"inconclusive: 15.8 µM [inhibitor, partial curve]"
COc1ccc(N(C2=NCCCS2)S(=O)(=O)c2ccc(C(C)(C)C)cc2)cc1,inactive: 1.75%,
COc1ccc(CNC(=O)Cn2c(SCC(=O)Nc3ccc(C)c(C)c3)nc3ccccc32)cc1,inactive: -0.777%,
O=C1CN(C(=O)c2ccc(Br)o2)C(c2ccccc2)c2cc(Br)ccc2N1 (configuration not stated),,"inconclusive: 31.6 µM [inhibitor, single point]"
CNCc1c(OCc2ccccc2F)ccc2ccccc12,,"inconclusive: 0.947 µM [inhibitor, partial curve, poor fit]"
CC(C)C(C(=O)Nc1nccs1)c1ccc(Cl)cc1 (configuration not stated),inactive: -29.9%,
O=C(NCCc1cccc(Cl)c1)c1ccc(OC2CCN(Cc3ccccn3)CC2)cc1,,"inconclusive: 20 µM [inhibitor, partial curve, poor fit]"
Cc1cc(Br)ccc1NC(=O)c1cnc(N2CCN(c3ccccn3)CC2)c2ccccc12,,"inconclusive: 8.91 µM [inhibitor, partial curve]"
Cc1nnc(NC(=O)c2oc3c(ccc4ccccc43)c2C)s1,inactive: 7.18%,
Cc1cc(N2CCN(C(c3ccnc4ccccc34)c3nnnn3-c3c(C)cccc3C)CC2)c2ccccc2n1 (configuration not stated),,"inconclusive: 12.6 µM [inhibitor, partial curve, poor fit]"
CC1(C)SC(=S)N(NC(=O)Nc2cccc3ccccc23)C1N(O)C(=O)Nc1ccccc1 (configuration not stated),,"inconclusive: 39.8 µM [inhibitor, single point]"
O=C1N[C@@H](c2ccccc2)COC(=O)[C@@H](Cc2ccc(F)cc2)CC/C=C/C[C@@H]1CC(=O)N(CCO)Cc1ccccc1,,"inconclusive: 39.8 µM [inhibitor, single point]"
COc1ccc(C(C)C)cc1S(=O)(=O)NCCc1c(C)[nH]c2ccc(C)cc12,,"inconclusive: 39.8 µM [inhibitor, single point]"
CCOc1ccccc1-c1c2cc(O)c(=O)cc-2oc2cc(O)c(O)cc12,,"inconclusive: 22.4 µM [inhibitor, single point]"
CCc1ccc2nc(N(CCCN(C)C)C(=O)c3ccc(C(=O)c4ccccc4)cc3)sc2c1,,"inconclusive: 39.8 µM [inhibitor, single point]"
CN(Cc1ccc(OC(F)F)cc1)C(=O)c1cccc(S(=O)(=O)N2CCN(Cc3ccccc3)CC2)c1,,"inconclusive: 14.1 µM [inhibitor, partial curve, poor fit]"
O=C(OCc1ccccc1)c1ccc(NCc2cc(O)ccc2O)cc1,,active: 10 µM
Cc1ccc2nc(C(C)(C)C)c(Cc3ccccc3C(F)(F)F)n2c1,,"inconclusive: 39.8 µM [inhibitor, single point]"

Compound,"activity change, negative = inhibition",Potency
Nc1ncc(Br)cc1S(=O)(=O)NCCC(=O)Nc1cccc(Cl)c1,,"inconclusive: 3.16 µM [inhibitor, partial curve, poor fit]"
Nc1nc(NCCCN2CCOCC2)nc(Nc2cccc(F)c2)c1[N+](=O)[O-],,"inconclusive: 15.8 µM [inhibitor, partial curve, poor fit]"
Cc1cc(OCc2nc(N)nc(N)c2-c2ccc(Cl)c(Cl)c2)ccc1[N+](=O)[O-],,"inconclusive: 8.91 µM [inhibitor, partial curve]"
CCCCNC(=O)C(NC(=O)c1cccc2ccccc12)C(=O)c1ccccc1 (configuration not stated),,"inconclusive: 28.2 µM [inhibitor, single point]"
CCOc1ccc(OCC)c(NC(=O)CN(C)S(=O)(=O)c2ccc3c(c2)CCCC(=O)N3)c1,,"inconclusive: 28.2 µM [inhibitor, single point]"
Cc1cccc(N=Nc2ccc(O)c3ncccc23)c1,inactive: -27.9%,
C[C@H](CCC(=O)OCc1cn(CC(=O)c2ccc(O)cc2)nn1)C1CC[C@H]2[C@@H]3CC[C@@H]4C[C@H](O)CC[C@]4(C)[C@H]3C[C@H](O)[C@]12C (some centres not stated),,"inconclusive: 39.8 µM [inhibitor, single point]"
Cc1ccc(C(=O)NCC(c2cccs2)S(=O)(=O)c2cccs2)cc1 (configuration not stated),,"inconclusive: 39.8 µM [inhibitor, single point]"
Clc1ccc(CNc2ccc(N3CCN(Cc4ccccc4)CC3)cc2)cc1,inactive: -15.2%,
S=c1[nH]nc(-c2ccccc2)n1Cc1ccccc1,inactive: -1.69%,
C#Cc1ccc(NC(=O)C2(C)CCN2C(=O)Cc2ccc(C(C)C)cc2)cc1 (configuration not stated),,"inconclusive: 14.1 µM [inhibitor, partial curve, poor fit]"
Cc1c(NC(=O)/C(C#N)=C/c2ccc(-c3cc(Cl)ccc3Cl)o2)c(=O)n(-c2ccccc2)n1C,,"inconclusive: 31.6 µM [inhibitor, single point]"
Cc1cc(=O)n2nc(-c3ccccc3)sc2c1C#N,inactive: 15.5%,
O=C(CCl)N(c1ccccc1)c1c[nH]c2ccccc12,,"inconclusive: 39.8 µM [inhibitor, single point]"
O=C(COc1ccc(F)cc1)N/N=C/c1cccc2cccnc12,,"inconclusive: 20 µM [inhibitor, partial curve, poor fit]"
O=[N+]([O-])c1ccc(O)c(-c2nn[nH]n2)c1,inactive: 64.8%,
Cc1ccc(-n2nnnc2C(Cl)(Cl)c2nnnn2-c2ccc(C)cc2)cc1,,"inconclusive: 39.8 µM [inhibitor, single point]"
C[C@@H](N)c1ccc(C(=O)Nc2ccnc3[nH]ccc23)cc1,,"inconclusive: 30.6 µM [inhibitor, single point]"
O=C1CCCC2=C1C(c1ccc(OS(=O)(=O)c3ccc(Cl)cc3)cc1)C1=C(CCCC1=O)O2,,"inconclusive: 35.5 µM [inhibitor, partial curve, poor fit]"
O=C(c1ccc(C(F)(F)F)cc1)N1CCC(=O)N(C(COCc2ccc(C(F)(F)F)cc2)Cc2ccccc2)CC1 (configuration not stated),,"inconclusive: 20 µM [inhibitor, partial curve, poor fit]"
Cc1cccc(NS(=O)(=O)c2ccc3c(c2)CCN3C(=O)C2CCC2)c1,,"inconclusive: 20 µM [inhibitor, partial curve]"
Cc1[nH]n2c(=O)cc(C(C)(C)C)nc2c1-c1ccccc1,,active: 17.8 µM
COC(=O)C1=C(c2ccccc2)c2ccccc2S(=O)(=O)N1CC(=O)Nc1ccccc1Cl,inactive: 1.6%,

Compound,"activity change, negative = inhibition",Potency
CC(C)NC(=O)C1(C)CCN1Cc1ccc(-c2ccccc2)cc1 (configuration not stated),,"inconclusive: 22.4 µM [inhibitor, partial curve, poor fit]"
Cc1cc2cc(C(c3nnnn3C3CCCC3)N(Cc3cccnc3)Cc3ccco3)c(=O)[nH]c2cc1C (configuration not stated),inactive: -12.5%,
COc1ccccc1NC(=O)Cn1nnc(-c2ccccc2NC(=O)c2ccco2)n1,inactive: -24.3%,
C=CCSc1nc2sc3c(c2c(=O)n1CC)CCc1ccccc1-3,inactive: -7.95%,
Cc1ccc(CSc2ncnc3ccccc23)cc1,inactive: 10.1%,
COc1ccc(-c2csc(N3CCN(c4cc(C)nc5ccccc45)CC3)n2)cc1OC,,"inconclusive: 3.98 µM [inhibitor, single point]"
COc1ccc(/C=C/C(=O)NC(=S)NNC(=O)c2cnccn2)cc1,,active: 14.1 µM
O=C(NC(=S)Nc1ccc(CN2CCCCC2)cc1)c1ccco1,inactive: 8.24%,
CC(C)(C)NC(=O)C(c1ccc(-c2ccccc2)cc1)N(C[C@H]1CC[C@@H]([C@@H]2CC[C@H](CO)O2)O1)C(=O)c1ccccc1F (some centres not stated),,"inconclusive: 20 µM [inhibitor, single point]"
CC(C)C[C@H]1CN([C@@H](CC(C)C)CN2CCCC2CN2C(=S)NC[C@@H]2Cc2ccc(O)cc2)C(=S)N1CC1CCCCCC1 (some centres not stated),inactive: 9.52%,
c1ccc(CN2CCN(CCCNc3ccc4nnc(-c5ccccc5)n4n3)CC2)cc1,,"inconclusive: 28.2 µM [inhibitor, single point]"
Cc1sc2ncnc(NCc3ccco3)c2c1C,,"inconclusive: 8.91 µM [inhibitor, partial curve, poor fit]"
CCN1C=CC(=C2C(=O)c3ccccc3C2=O)C=C1,,active: 1.12 µM
COc1ccc(C2CC(c3ccc4ccccc4c3)=NN2C(=O)CN2C(=O)CCC2=O)cc1 (configuration not stated),inactive: 3.34%,
CCc1ccc(OCC(=O)NC(NC(=S)Nc2ccccc2C)C(Cl)(Cl)Cl)cc1 (configuration not stated),,"inconclusive: 37.7 µM [inhibitor, single point]"
CCOc1ccccc1C(=O)NC1CC2CCCC(C1)N2Cc1nnnn1Cc1ccco1 (configuration not stated),inactive: -22%,
CCC(C)c1ccc(C(C)NC(=S)NC2CCCCC2)cc1 (configuration not stated),,"inconclusive: 39.8 µM [inhibitor, single point]"
Cc1nc(-c2ccc(Cl)cc2)sc1C1(C)CC(c2ccccc2Br)=NO1 (configuration not stated),inactive: 15.7%,
O=C(CCCn1c(=S)[nH]c2ccc(Br)cc2c1=O)N1CCN(c2ccccn2)CC1,inactive: -29.7%,
Nc1ccccc1C(=O)Nc1cccc(C(=O)O)c1,,"inconclusive: 25.1 µM [inhibitor, single point]"
CS(=O)(=O)N(CC(=O)N1CCN(c2ccccc2F)CC1)C1CCCCC1,inactive: -3.33%,
